The text below walks through data of publication PMC4336329 (PLoS ONE, 2015).

SMILES strings stand for the structures. About 14,000 (4.5%) of roughly 310,000 compounds showed an effect of 50% or more. The effect is printed as a negative number. This is one part of the list.
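Further: peak tail current of the secondary pulse compared with the same well before compound.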

The assay deals with human ether-à-go-go-related gene (hERG) potassium channel (human, UniProt Q12809). The experiment in a line: primary screen, population patch clamp on CHO cells stably expressing hERG.
human ether-à-go-go-related gene (hERG) potassium channel, sequence (Q12809 whole entry, looked up): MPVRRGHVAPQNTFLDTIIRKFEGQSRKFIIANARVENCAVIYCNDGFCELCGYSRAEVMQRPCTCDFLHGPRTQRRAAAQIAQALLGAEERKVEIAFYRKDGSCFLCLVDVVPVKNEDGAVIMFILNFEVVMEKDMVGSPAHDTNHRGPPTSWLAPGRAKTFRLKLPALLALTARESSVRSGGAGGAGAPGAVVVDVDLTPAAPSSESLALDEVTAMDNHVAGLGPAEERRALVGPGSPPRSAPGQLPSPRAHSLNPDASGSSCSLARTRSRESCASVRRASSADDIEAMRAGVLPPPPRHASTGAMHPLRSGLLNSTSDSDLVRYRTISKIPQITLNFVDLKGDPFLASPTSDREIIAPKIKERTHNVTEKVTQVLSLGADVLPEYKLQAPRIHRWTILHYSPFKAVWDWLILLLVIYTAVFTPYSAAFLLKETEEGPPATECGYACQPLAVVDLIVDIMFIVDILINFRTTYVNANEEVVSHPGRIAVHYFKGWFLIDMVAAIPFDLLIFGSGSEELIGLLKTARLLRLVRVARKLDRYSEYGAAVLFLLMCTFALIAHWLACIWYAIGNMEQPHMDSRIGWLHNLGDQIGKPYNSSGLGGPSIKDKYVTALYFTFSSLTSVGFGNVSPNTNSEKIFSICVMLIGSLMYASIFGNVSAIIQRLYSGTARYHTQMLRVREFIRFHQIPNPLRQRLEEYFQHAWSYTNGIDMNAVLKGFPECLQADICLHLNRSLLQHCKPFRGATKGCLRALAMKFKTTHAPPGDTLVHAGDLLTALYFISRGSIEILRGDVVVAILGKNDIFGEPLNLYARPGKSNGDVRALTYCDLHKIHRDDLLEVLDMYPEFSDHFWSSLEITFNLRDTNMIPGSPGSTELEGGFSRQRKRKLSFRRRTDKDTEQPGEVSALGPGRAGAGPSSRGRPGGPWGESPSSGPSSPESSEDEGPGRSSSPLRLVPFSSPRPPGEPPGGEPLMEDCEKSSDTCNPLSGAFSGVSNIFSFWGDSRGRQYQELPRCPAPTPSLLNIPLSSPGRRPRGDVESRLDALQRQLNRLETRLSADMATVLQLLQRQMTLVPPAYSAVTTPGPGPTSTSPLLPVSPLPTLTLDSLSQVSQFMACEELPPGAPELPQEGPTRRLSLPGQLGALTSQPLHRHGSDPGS
With `N#Cc1ccsc1NC(=O)COc1ccc(-c2nnco2)cc1`, the “hERG current change (%, negative = inhibition) at 10uM” value was determined as 1.95%. With `COc1ccc(C(CNC(=O)c2cccc(S(=O)(=O)N3CCCC3)c2)N2CCCC2)cc1` (stereo not drawn), the “hERG current change (%, negative = inhibition) at 10uM” value was -22.9%.

For `CC(=O)Oc1ccc(/C=N/NC(=O)CCSc2ccccc2)cc1`, the “hERG current change (%, negative = inhibition) at 10uM” value is -8.83%. For the compound `Cc1cc(NC(=O)CSc2nc3c(c(=O)n2Cc2ccccc2)SC(C)C3)no1` (stereo not drawn), the “hERG current change (%, negative = inhibition) at 10uM” value turned out to be 10.8%. With `NC(=O)CC(NC(=O)Cc1cccc2ccccc12)c1ccc(NCCc2ccccc2F)c([N+](=O)[O-])c1` (stereo not drawn), the “hERG current change (%, negative = inhibition) at 10uM” value is on record as 10.1%. The figure for `COc1cc(NC(=O)CCS(=O)(=O)c2ccc3c(c2)oc(=O)n3C)cc(OC)c1OC` is 19.8%; for `O=[N+]([O-])c1cccnc1Sc1ccc(Cl)cc1` it is -11%. The figure for `CCOC(=O)CN1C(=O)S/C(=C\c2ccc(-c3ccc(C(=O)O)c(Cl)c3)o2)C1=O` is 4%. The figure for `COc1cc(CN2CCCC(N3CCc4ccccc4C3)C2)c(Cl)cc1O` (stereo not drawn) is -48.6%; for `O=c1cc(CO)oc(C(Nc2ccccn2)c2ccccc2Cl)c1O` (stereo not drawn) it is -0.246%. `O=C(CN1C(=O)CC(c2ccccc2)=Nc2ccccc21)NCc1ccco1`: the “hERG current change (%, negative = inhibition) at 10uM” value is recorded as -3.96%. In the case of `CCc1ccc(S(=O)(=O)N2CC(=O)Nc3ccccc32)cc1` it was -22.9%; in that of `COc1ccccc1N1CCN(S(=O)(=O)CCNC(=O)C23CC4CC(CC(C4)C2)C3)CC1`, -14.2%.

For `COc1cc(NC(=S)NC(=O)CC(C)C)ccc1NC(=O)c1cc2ccccc2o1`, the “hERG current change (%, negative = inhibition) at 10uM” value is on record as 19.7%.

In the case of `NC(=O)NCCCC(=O)OCC(=O)c1ccc2ccccc2c1`, the “hERG current change (%, negative = inhibition) at 10uM” value was 13.4%.

On to `COCc1cc(C)nc2sc(C(=O)OC)c(N)c12`, for which the “hERG current change (%, negative = inhibition) at 10uM” value amounted to 4.96%.

With `Nc1ccccc1Sc1ccccc1[N+](=O)[O-]`, the “hERG current change (%, negative = inhibition) at 10uM” value was -15.4%.

Take `CNC(=O)c1c(NC(=O)CCS(=O)(=O)c2ccc(C)cc2)sc(C)c1C`: the “hERG current change (%, negative = inhibition) at 10uM” value is listed as -5.82%. In the case of `O=C(CN1C(=O)/C(=C/c2ccccc2F)Oc2ccccc21)N1CCN(c2ccccn2)CC1` it was 7.12%; in that of `N#Cc1ccsc1NC(=O)CN1CCN(c2ccccn2)CC1`, -36.1%. The figure for `O=C(O)CCCC[C@@H]1SC[C@@H]2NC(=O)N[C@@H]21` is 1.92%; for `Cc1ccc(N2C(=O)[C@@H]3[C@H](C2=O)[C@H]2C=CC=NN2[C@@H]3C(=O)Nc2ccc(Cl)cc2)cc1` it is -21.4%.

Take `CC1CCCC(C)N1c1nnc(N)s1` (stereo not drawn): the “hERG current change (%, negative = inhibition) at 10uM” value is given as 10.1%.

Consider `COc1ccc2nc3sc(C(=O)N4CCN(C)CC4)cc3cc2c1`, for which the “hERG current change (%, negative = inhibition) at 10uM” value is listed as -33.5%. In the case of `O=C1N[C@H](Cc2ccccc2)CO1` it was 10.5%; in that of `O=C(Nc1ccc2c(c1)OCCO2)c1cnn(-c2ccccc2)n1`, -6.02%.

For `CC(=O)Nc1ccc(NC(=S)NC(=O)C2CCCC2)cc1`, the “hERG current change (%, negative = inhibition) at 10uM” value is -6.01%. The figure for `COc1ccc(-n2cccc2/C=C2/NC(=O)N(c3cccc(Cl)c3)C2=O)cc1` is 5.24%; for `Cc1ccccc1-c1nnc(-c2ccccc2C)o1` it is 2.05%.

Take `Cc1cccc(NCC(=O)N/N=C\c2ccc[nH]2)c1`: the “hERG current change (%, negative = inhibition) at 10uM” value is reported as 16.8%. In the case of `CCOc1ccc(NC(=O)Cn2cncc2-c2ccc([N+](=O)[O-])cc2)cc1` it was -1.87%; in that of `CCN1CCN(CC(=O)c2c(C)n(Cc3ccccc3)c3ccc(OC)cc23)CC1`, -41.3%; in that of `CCc1nc2sccc2c(=O)[nH]1`, 15.4%.

In the case of `CC(/C=C/c1ccccc1)=N\NC(=S)NC(C)C`, the “hERG current change (%, negative = inhibition) at 10uM” value is -2.54%. In the case of `Cc1cccc(NC(=O)c2sc(NC(=O)c3ccco3)c(C#N)c2C)c1C` it was 5.79%; in that of `COc1ccccc1C(=O)NC(=S)Nc1ccc(N2CCN(C(=O)c3ccco3)CC2)cc1`, -5.07%. In the case of `CC12CCC(=O)N1C(C(=O)OCC(=O)Nc1ccc(S(N)(=O)=O)cc1)CS2` (stereo not drawn) it was 8.56%; in that of `CCN(CC)S(=O)(=O)c1ccc(Cl)c(NC(=O)COC(=O)c2cccn2C)c1`, 8.63%; in that of `COC(=O)c1cnc(SCc2ccc(Cl)cc2)n1C`, -21.5%. Turning to `COc1ccc(O)c(C2=Nc3ccccc3N=C(c3cccs3)C2)c1`, the “hERG current change (%, negative = inhibition) at 10uM” value is listed as 17.1%. In the case of `CCn1c(=O)n(CC)c2cc(S(=O)(=O)N3CCC(c4ccccc4)CC3)ccc21` it was -4.56%; in that of `CCCNC(=S)N1CC2(C)CN(C(=O)C(=O)OC)CC(C)(C1)C2=O`, 11.8%.

Regarding `CCN(Cc1ccccc1)S(=O)(=O)c1cc(C(=O)NCCCN(C)C)ccc1OC`, the “hERG current change (%, negative = inhibition) at 10uM” value was -50.3%.

With `O=C(Nc1ccccc1Br)c1cc[n+]([O-])cc1`, the “hERG current change (%, negative = inhibition) at 10uM” value amounted to 21.1%. The figure for `Cc1onc(-c2ccccc2Cl)c1C(=O)N1CCCCC1C` (stereo not drawn) is -2.84%. On to `O=C1c2ccccc2C(=O)C1c1ccccc1F`, for which the “hERG current change (%, negative = inhibition) at 10uM” value is listed as -1.72%. In the case of `COc1ccc(CNCc2ccc3c(c2)OCO3)c(OC)c1OC.O=C(O)C(=O)O` it was 1.71%; in that of `CCN(CC(=O)Nc1c(F)cccc1F)C(=O)Cc1ccc2c(c1)CCC2`, 6.48%.

Turning to `O=C(COC(=O)c1ccccc1F)NC1CC1`, the “hERG current change (%, negative = inhibition) at 10uM” value was -6.55%. Take `O=C(Cn1c(C(F)(F)F)nc2ccccc21)Nc1ccccc1N1CCOCC1`: the “hERG current change (%, negative = inhibition) at 10uM” value is listed as -7.87%. As to `O=C(NC(=O)c1c(F)cccc1F)Nc1ccccc1SC(F)F`, the “hERG current change (%, negative = inhibition) at 10uM” value is listed as -10.1%. The figure for `CCOC(=O)c1ccccc1NC1OC(=O)c2ccccc21` (stereo not drawn) is 13.1%; for `COc1cc(CNC2CCCC2)cc(Cl)c1OCc1ccccc1F.Cl` it is -1.44%. In the case of `CCc1ccc2c(CN3CCC(C(=O)OC)CC3)cc(=O)oc2c1` it was -45.2%; in that of `COC(=O)CSc1nc(NC(C)(C)C)nc(N(C)C)n1`, -26.3%; in that of `O=C1NC(c2ccc(Cl)cc2)=COc2ccccc21`, 10.4%.

Consider `Cc1ccc(-c2csc3ncn(CC#N)c(=O)c23)cc1C`, for which the “hERG current change (%, negative = inhibition) at 10uM” value was 4.94%.
